Experimental data from PubChem BioAssay AID588342 (National Center for Advancing Translational Sciences (NCATS), 2011).
“And” between values parts separate entries of the source, which are not always exact repeats. Identical values can stand only once. The campaign covered roughly 360,000 compounds. About 25,000 (6.9%) were called active. This list was built around the results that the source calls inconclusive (neither active nor inactive); the mix of calls is not that of the screen. Calls come from the whole dose curve; as a rule, active = well fitted inhibition curve with a large enough effect; inconclusive = small, poorly fitted or top-dose-only effect; inactive = flat fitted curve, though single readings scatter. A potency beside an inconclusive call is a rough fit, not a confirmed value.

What follows are molecules tested against Luciferin 4-monooxygenase (Photinus pyralis) (UniProt P08659) (assay: qHTS profiling assay for firefly luciferase inhibitor/activator using purifed enzyme and Km concentrations of substrates (counterscreen for miR-21 project)). Conditions: purified FLuc, luminescence inhibition; series mostly up to 57.5 µM.
Chain of UniProt P08659 (P08659 whole entry, looked up): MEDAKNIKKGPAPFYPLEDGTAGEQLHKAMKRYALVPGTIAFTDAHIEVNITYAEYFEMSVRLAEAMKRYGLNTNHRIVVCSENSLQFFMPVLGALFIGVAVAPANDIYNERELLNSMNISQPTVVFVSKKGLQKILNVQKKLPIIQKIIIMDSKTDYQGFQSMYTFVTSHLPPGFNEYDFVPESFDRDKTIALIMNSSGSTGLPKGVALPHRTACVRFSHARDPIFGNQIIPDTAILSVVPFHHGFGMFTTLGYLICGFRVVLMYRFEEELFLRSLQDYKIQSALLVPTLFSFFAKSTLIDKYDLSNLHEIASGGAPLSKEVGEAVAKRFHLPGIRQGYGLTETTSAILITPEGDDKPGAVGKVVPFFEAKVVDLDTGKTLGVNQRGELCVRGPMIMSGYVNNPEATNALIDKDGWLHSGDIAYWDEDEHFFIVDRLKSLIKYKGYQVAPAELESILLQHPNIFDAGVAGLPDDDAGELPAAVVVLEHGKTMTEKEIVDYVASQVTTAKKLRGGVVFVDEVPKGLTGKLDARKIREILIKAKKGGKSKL
Outline: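 Purified P. pyralis luciferase (10nM final) with 10uM D-luciferin and 10uM ATP (Km levels) in 50mM Tris acetate pH 7.5, 10mM Mg acetate, 0.01% Tween-20, 0.05% BSA; qHTS 6-point titration, ~60 µM downward; luminescence read.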
Note: nearly all actives have a fitted effect of over 55% in size.
Potency is the fitted concentration of half-maximal effect; tags give direction and shape of the fitted curve.

Compound | Potency
COc1ccc(-c2cc3ccc(O)c(CN4CCCC4)c3oc2=O)cc1OC | active: 15.1 µM
COCCN(C(=O)C1CC1)c1nnc(-c2cccc(C)c2)s1 | inconclusive: 26.9 µM [inhibitor, single point]
Cc1ccc(/C=N/NC(=O)c2nnn(-c3nonc3N)c2C(C)C)o1 | inconclusive: 23.9 µM [inhibitor, partial curve, poor fit]
CCCCCCSc1ncc(C#N)c(N)n1 | inconclusive: 30.1 µM [inhibitor, partial curve, poor fit]
CCOC(=O)C1=C(Cc2ccc(F)cc2)C(=O)c2ccccc2C1=O | inconclusive: 26.9 µM [inhibitor, single point]
COC(=O)COc1ccc(Oc2nc(NC(C)(C)C)nc(N(C)C)n2)nn1 | inactive
CSc1ccc(C2C(C(=O)c3ccco3)=C(O)C(=O)N2c2nnc(SC)s2)cc1 (stereo not drawn) | inconclusive: 26.9 µM [inhibitor, partial curve]
Cc1ccc(NC(=O)Nc2ccc3c(c2)nc(C)n3C)cc1C | active: 2.69 µM
Cc1cccc(NC(=O)c2ccccc2NC(=O)C2CCCCC2)c1C | active: 16.9 µM
O=C1/C(=C/c2cccnc2)CC/C1=C\c1cccnc1 | inconclusive: 16.9 µM [inhibitor, partial curve]
COc1cccc(-c2csc(N3CCN(C(=S)NCC(C)C)CC3)n2)c1 | inconclusive: 30.1 µM [inhibitor, partial curve, poor fit]
CCC(Sc1nnc2c3ccccc3n(C)c2n1)C(=O)Nc1nnc(C(C)C)s1 (stereo not drawn) | inconclusive: 4.26 µM [inhibitor, partial curve, poor fit]
CCC(C)C(NC(=O)c1ccccc1NC(=O)c1ccc(C)cc1)C(=O)O (stereo not drawn) | inconclusive: 13.5 µM [inhibitor, partial curve, poor fit]
Cc1cnc(NC(=O)CSc2ccccc2)s1 | inconclusive: 37.9 µM [inhibitor, partial curve, poor fit]
COc1cccc(NC(=O)COc2cc(O)c3c(c2)OC(C)(C)CC3=O)c1 | active: 4.26 µM
COc1ccc(OC)c(-c2csc(NC(=O)COC(=O)C3CCC3)n2)c1 | inconclusive: 21.3 µM [inhibitor, partial curve]
CCCCCn1c(=O)c2c(nc3n2CCN3c2ccc(Br)cc2)n(C)c1=O | inconclusive: 10.7 µM [inhibitor, partial curve, poor fit]
Cc1ccc(C(=O)/C=C/c2ccc3c(c2)OCO3)o1 | active: 2.39 µM
COc1cc(C)ccc1OCCSc1nc2ccc(NC(C)=O)cc2s1 | inconclusive: 23.9 µM [inhibitor, partial curve]
COc1ccc(NC(=O)c2cc(C3CC3)on2)c(OC)c1 | inconclusive: 16.9 µM [inhibitor, partial curve]
COc1c(Cl)ccc(Cl)c1C(=O)NC(=S)N1CCOCC1 | inactive
COc1ccc(C(=O)Nc2nc3c(s2)Cc2cc(OC)ccc2-3)cc1 | inconclusive: 4.26 µM [inhibitor, partial curve] and inconclusive: 3.38 µM [inhibitor, partial curve, poor fit]

Compound | Potency
C=CCNC(=S)/N=c1/scc(C)n1C | inconclusive: 37.9 µM [inhibitor, single point]
Cc1ccc(NC(=O)N2CCc3ccccc3C2)c(C)c1 | inconclusive: 21.3 µM [inhibitor, single point]
Cc1c(CN2CCC(CO)(Cc3cccc(C(F)(F)F)c3)CC2)c2ccccc2n1C | inactive
Cc1cc(=O)n2nc(-c3ccccc3)sc2n1 | inconclusive: 16.9 µM [inhibitor, partial curve]
Clc1ccc(-c2nnc(-c3ccco3)nc2N2CCCCC2)cc1 | inconclusive: 33.8 µM [inhibitor, partial curve, poor fit]
CCCc1cc(=O)oc2c3c(cc(OCC(=O)NCC4CCC(C(=O)O)CC4)c12)OC(C)(C)CC3 (stereo not drawn) | inconclusive: 26.9 µM [inhibitor, partial curve]
CN(C(=O)Cn1nnc(-c2ccc(S(C)(=O)=O)cc2)n1)c1ccccc1 | inactive
Cc1ccc2nc(NC(=O)CN3CCOCC3)sc2c1 | inconclusive: 23.9 µM [inhibitor, partial curve]
CC(C)C(NC(=O)c1ccco1)C(=O)OCC(=O)c1ccccc1 (stereo not drawn) | active: 16.9 µM
CN(C)c1ccc(C(=S)N2CCN(c3ccccc3)CC2)cc1 | inconclusive: 21.3 µM [inhibitor, partial curve, poor fit]
COc1ccc(-c2cn3c(n2)sc2cc(C(=O)Nc4ccc(C)cc4C)ccc23)cc1 | inactive
Cc1ccc(/C(C#N)=C\c2cn(C)c3ccccc23)cc1 | inconclusive: 23.9 µM [inhibitor, partial curve, poor fit]
O=S(=O)(c1ccccc1)c1nc(-c2ccccc2F)oc1N1CCOCC1 | inactive
COc1ccccc1-c1cc(C(=O)N/N=C/c2ccoc2)c2ccccc2n1 | inconclusive: 23.9 µM [inhibitor, partial curve, poor fit]
COc1cc2ccccc2cc1C(=O)Nc1ccc2oc(-c3cccc(C)c3)nc2c1 | inconclusive: 15.1 µM [inhibitor, partial curve, poor fit]
O=C1CSC(=S)N1Cc1cccnc1 | inactive
Cc1cccc(OCCCn2c(CCNC(=O)C(C)C)nc3ccccc32)c1 | inconclusive: 16.9 µM [inhibitor, partial curve, poor fit]
Cc1[nH]c2ccccc2c1C(=O)COC(=O)c1nccnc1N | inconclusive: 23.9 µM [inhibitor, single point]
CCOc1ccc(NC(=O)CN(C)C(=O)c2cccc(S(=O)(=O)N3CCCC3)c2)cc1OCC | inactive
O=C(Nc1ccccn1)c1cc2cc([N+](=O)[O-])ccc2s1 | inconclusive: 2.13 µM [inhibitor, full curve]
COc1cc(C2C(C#N)=C(N)Oc3c2c(-c2ccccc2)nn3-c2ccccc2)cc(OC)c1OC (stereo not drawn) | inactive
